{
  "source": "PubChem BioAssay AID1347165",
  "about": "(National Center for Advancing Translational Sciences (NCATS), 2019)",
  "note": "Among all 220,000 compounds or so, about 5,700 (2.6%) were called active. The shares of active, inactive and inconclusive entries below differ from those in the screen. Calls come from the whole dose curve; as a rule, active = well fitted inhibition curve with a large enough effect; inconclusive = small, poorly fitted or top-dose-only effect; inactive = no such curve, though single readings can be large or run the other way. A potency beside an inconclusive call is a rough fit, not a confirmed value. Potency is the fitted concentration of half-maximal effect; tags give direction and shape of the fitted curve.",
  "data": [
    {"target": "Lysine-specific demethylase 5B (Homo sapiens) (UniProt Q9UGL1)", "sequence (Q9UGL1 whole entry, looked up)": "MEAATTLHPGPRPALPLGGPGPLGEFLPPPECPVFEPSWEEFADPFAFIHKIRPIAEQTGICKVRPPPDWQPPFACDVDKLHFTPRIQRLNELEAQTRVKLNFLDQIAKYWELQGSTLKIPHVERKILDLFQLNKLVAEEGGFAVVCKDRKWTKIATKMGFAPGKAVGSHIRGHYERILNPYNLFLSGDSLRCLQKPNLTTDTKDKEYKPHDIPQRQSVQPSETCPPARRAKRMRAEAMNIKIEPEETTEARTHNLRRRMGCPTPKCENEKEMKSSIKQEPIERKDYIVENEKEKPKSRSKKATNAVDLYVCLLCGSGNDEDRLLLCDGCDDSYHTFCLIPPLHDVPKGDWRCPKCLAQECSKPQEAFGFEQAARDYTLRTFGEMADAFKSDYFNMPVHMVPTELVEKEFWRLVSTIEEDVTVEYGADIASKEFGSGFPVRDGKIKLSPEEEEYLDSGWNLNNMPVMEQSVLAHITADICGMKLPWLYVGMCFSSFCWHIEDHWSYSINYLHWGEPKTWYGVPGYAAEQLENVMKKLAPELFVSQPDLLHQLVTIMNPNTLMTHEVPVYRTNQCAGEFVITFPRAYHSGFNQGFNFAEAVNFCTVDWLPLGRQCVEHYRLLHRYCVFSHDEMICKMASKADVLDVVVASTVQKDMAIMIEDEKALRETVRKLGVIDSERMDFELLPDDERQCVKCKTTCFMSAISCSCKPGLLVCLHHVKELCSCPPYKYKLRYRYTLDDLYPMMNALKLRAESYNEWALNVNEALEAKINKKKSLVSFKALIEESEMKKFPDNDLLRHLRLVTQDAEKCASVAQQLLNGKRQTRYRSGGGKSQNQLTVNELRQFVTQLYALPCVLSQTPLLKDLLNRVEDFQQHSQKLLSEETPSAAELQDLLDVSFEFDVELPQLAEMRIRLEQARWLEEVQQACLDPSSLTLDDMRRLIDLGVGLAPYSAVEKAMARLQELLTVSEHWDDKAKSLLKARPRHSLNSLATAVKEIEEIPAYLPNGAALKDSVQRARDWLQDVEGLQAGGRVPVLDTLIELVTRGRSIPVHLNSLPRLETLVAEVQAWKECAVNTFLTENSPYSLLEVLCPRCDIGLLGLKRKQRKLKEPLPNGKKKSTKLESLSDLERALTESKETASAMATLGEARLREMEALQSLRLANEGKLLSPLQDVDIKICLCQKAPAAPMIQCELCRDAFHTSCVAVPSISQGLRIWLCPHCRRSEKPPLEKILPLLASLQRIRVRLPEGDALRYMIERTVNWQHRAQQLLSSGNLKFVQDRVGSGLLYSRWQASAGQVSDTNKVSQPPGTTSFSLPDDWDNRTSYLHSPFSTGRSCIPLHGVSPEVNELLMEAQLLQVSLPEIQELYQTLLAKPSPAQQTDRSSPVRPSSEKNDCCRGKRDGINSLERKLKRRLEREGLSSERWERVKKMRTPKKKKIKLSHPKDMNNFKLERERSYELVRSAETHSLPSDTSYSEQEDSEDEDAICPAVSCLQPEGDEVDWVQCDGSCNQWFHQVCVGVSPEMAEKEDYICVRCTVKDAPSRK", "test": "Primary screen for KDM5B Histone Demethylases FDH-coupled qHTS; note: nearly all actives have a fitted effect of over 70% in size; for activity change, negative = inhibition: 0% is about no effect", "conditions": "FDH-coupled NADH fluorescence (FDH is formaldehyde dehydrogenase); activity change, negative = inhibition: at 57.7 µM (top of the series) unless noted", "how_it_was_run": "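Coupled FDH/NAD⁺ fluorescence readout. KDM5BΔAP 200 nM final; compound titration, 10 min RT preincubation; substrate mix 12.5 µM H3K4me3, 25 µM 2-OG, 50 µM Fe(II), 100 µM ascorbate, 0.25 mM NAD⁺, 0.25 U/mL FDH; ΔRFU over 30 min.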", "values": [
      {"smiles": "COc1ccc2cc(C(=O)N3CCc4n[nH]c(=O)n4CC3)[nH]c2c1", "Potency": "inconclusive: 20 µM [inhibitor, single point]"},
      {"smiles": "Cc1ccc(-c2cc(C(=O)NC3=NCCS3)c3ccccc3n2)cc1", "Potency": "inconclusive: 35.5 µM [inhibitor, single point]"},
      {"smiles": "CCNC(=O)c1cccc(NC(=O)c2cnc3ccccc3n2)c1", "activity change, negative = inhibition": "inactive: -15.6%"},
      {"smiles": "O=C(c1ccc2ncccc2c1)N1CC(CO)C2(CCNCC2)C1", "note": "(stereo not drawn)", "Potency": "inconclusive: 17.8 µM [inhibitor, single point]"},
      {"smiles": "CCc1nnc(SCC(=O)N(C)CCOc2ccc(Br)cc2)n1C", "activity change, negative = inhibition": "inactive: -3.07%"},
      {"smiles": "COc1ccc(Nc2ncc(C(=O)N3CCN(c4ccc(F)cc4)CC3)c3ccccc23)cc1", "Potency": "inconclusive: 39.8 µM [inhibitor, partial curve, poor fit]"},
      {"smiles": "Cn1c(=O)[nH]c(=O)c2c1nc(N1CCN(C/C=C/c3ccccc3)CC1)n2Cc1ccc(Cl)cc1", "activity change, negative = inhibition": "inactive: 0.109%"},
      {"smiles": "CCOc1cc(/C=C/C(=O)NC(C)(C)C)ccc1OCC(C)C", "Potency": "inconclusive: 25.1 µM [inhibitor, partial curve, poor fit]"},
      {"smiles": "Cc1ccc(OCc2nnc(NC(=O)NCCc3cnc[nH]3)s2)cc1", "Potency": "inconclusive: 8.91 µM [inhibitor, partial curve, poor fit]"},
      {"smiles": "COc1ccc(CNS(=O)(=O)c2ccc(-c3cnc(C4CC4)o3)cc2)cc1", "Potency": "inconclusive: 25.1 µM [inhibitor, partial curve, poor fit]"},
      {"smiles": "COc1ccccc1/C=C/c1nc(C#N)c(NCCc2ccccc2)o1", "Potency": "inconclusive: 25.1 µM [inhibitor, partial curve, poor fit]"},
      {"smiles": "O=c1c2nc(N3CCC(c4ccccc4)CC3)ccc2ncn1Cc1ccccn1", "Potency": "inconclusive: 39.8 µM [inhibitor, partial curve, poor fit]"},
      {"smiles": "CNC(=O)Nc1ccc(C)n(CC(=O)NCc2cc(C)ccc2C)c1=O", "Potency": "inconclusive: 28.2 µM [inhibitor, single point]"},
      {"smiles": "Cc1ccccc1Nc1cc(C(=O)NCc2cccs2)c2ccccc2n1", "Potency": "inconclusive: 39.8 µM [inhibitor, single point]"},
      {"smiles": "CC(C)NC(=O)NC1=C(C#N)C(C)(C)Cc2ccccc21", "activity change, negative = inhibition": "inactive: -8.79%"},
      {"smiles": "CCOc1ccc(NCc2cccn2-c2nnc(N3CCC(C(=O)NCCOC)CC3)s2)cc1", "Potency": "inconclusive: 8.91 µM [inhibitor, partial curve, poor fit]"},
      {"smiles": "CC(C)C1CN(CC2CCC(N)CC2)CCC(=O)N1Cc1ccc(F)cc1", "note": "(stereo not drawn)", "Potency": "inconclusive: 28.2 µM [inhibitor, partial curve, poor fit]"},
      {"smiles": "CC1CCN(C(=O)c2cc3ccc(C(C)C)cc3[nH]2)CC1", "activity change, negative = inhibition": "inactive: 21.7%"}
    ]}
  ]
}
